In PubChem BioAssay AID485281 (National Center for Advancing Translational Sciences (NCATS), 2010):
The whole screen tested about 350,000 compounds, of which about 260 (0.074%) were called active. Inconclusive means that the source gave no clear call. Such entries were picked first, then a sample of the others. The call rests on the fitted dose curve; in most records, active means well fitted inhibition curve with a large enough effect; inconclusive means small, poorly fitted or top-dose-only effect; inactive means no such curve, though single readings can be large or run the other way. Potencies beside an inconclusive call are fits to weak or partial responses and may not hold up.

These compounds were tested against Ferritin light chain (Equus caballus) (UniProt P02791) (assay: qHTS Assay for Identification of Novel General Anesthetics). Settings: apoferritin/1-aminoanthracene competitive binding, fluorescence; series mostly up to 77.5 µM.
Procedure, shortened: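 10 uM apoferritin + 50% sat. 1-AMA, PBS; cpd 10 min RT; Ex380/Em535 endpoint; normalized to free probe vs complex; 4-param Hill fit; propofol titration as pos. ctrl.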
Further: nearly all actives have a fitted effect of over 20% in size.
Potency means the concentration at half of the fitted maximal effect; tags describe the fitted curve by direction and shape.

Chain of UniProt P02791 (P02791 whole entry, looked up): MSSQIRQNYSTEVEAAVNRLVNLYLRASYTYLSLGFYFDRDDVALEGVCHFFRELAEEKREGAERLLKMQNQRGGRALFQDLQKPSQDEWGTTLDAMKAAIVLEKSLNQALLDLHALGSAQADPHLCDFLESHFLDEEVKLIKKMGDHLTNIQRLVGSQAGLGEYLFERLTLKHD

Potency, inactive:
CC(=O)c1cccc(NS(=O)(=O)c2ccc(N/C=C/C(=O)c3ccc(F)cc3)cc2)c1
O=C1c2ccccc2C(=O)c2c(Nc3ccc(CCO)cc3)ccc(O)c21
CCOC(=O)c1ccc(NC(=O)c2nn(CC)cc2Br)cc1
COc1ccccc1Nc1ccc(N)cc1
CCc1c(C)c2ccc(OCC(=O)OC(C)C)c(C)c2oc1=O
CCN1/C(=C/c2ccc3cc(C)ccc3[n+]2CC)Sc2cc(C)ccc21
COc1ccc(-c2cc(=O)oc3c4c(ccc23)OCN(Cc2cccc(OC)c2)C4)cc1
COc1ccc(S(=O)(=O)N2CCN(C(=O)COc3ccc4c(C)cc(=O)oc4c3)CC2)cc1
Cc1ccnn1CC(=O)N/N=C/c1cn[nH]c1-c1ccc(F)cc1

Potency, inconclusive:
O=c1[nH]cnc2scc(C3COc4ccccc4O3)c12 (stereo unspecified) 31.6 µM [inhibitor, partial curve]
CC(C)(C)NC(=O)c1ccc2c3c(cccc13)CC2 20 µM [inhibitor, partial curve]
Cc1ccc(OCc2cc(C(=O)N(C)CCc3nc4ccccc4[nH]3)no2)cc1C 35.5 µM [inhibitor, partial curve]
CC(=O)c1cccc(NC(=O)CSCc2ccccc2)c1 44.7 µM [inhibitor, single point]
O=S(=O)(Nc1ccc(Cc2ccncc2)cc1)c1cccs1 22.4 µM [inhibitor, partial curve]
CCCCCOc1ccc(C(=O)NCC(=O)NCC(=O)OCC)cc1 20 µM [inhibitor, partial curve]
CCn1c(CNc2cccc(Cl)c2)nnc1SCc1ccccc1 17.8 µM [inhibitor, partial curve]
O=C(CSc1nc(-c2ccc(F)cc2)cs1)NC(=O)NCc1ccco1 50.1 µM [inhibitor, single point]
COc1cc(CCC(=O)Nc2sccc2C#N)cc(OC)c1OC 35.5 µM [inhibitor, partial curve]
CC(C)(C)C1CCC(C(=O)Nc2ccccc2)CC1 (stereo unspecified) 35.5 µM [inhibitor, partial curve]
Cc1cc(C)c(C(=O)COc2cccnc2[N+](=O)[O-])cc1C 39.8 µM [inhibitor, partial curve]
CC(NC(=S)NC1CCC(C(C)(C)C)CC1)c1ccccc1 (stereo unspecified) 5.62 µM [inhibitor, full curve]
